Assay results: publication PMC4336329 (PLoS ONE, 2015)
The whole screen tested about 310,000 compounds, of which about 14,000 (4.5%) showed an effect of 50% or more. Effects have a minus sign here. Some of the results follow.

biological target: human ether-à-go-go-related gene (hERG) potassium channel (human, UniProt Q12809); experiment: primary screen, population patch clamp on CHO cells stably expressing hERG
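Also: peak tail current of the secondary pulse compared with the same well before compound.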

Sequence of human ether-à-go-go-related gene (hERG) potassium channel (Q12809 whole entry, looked up): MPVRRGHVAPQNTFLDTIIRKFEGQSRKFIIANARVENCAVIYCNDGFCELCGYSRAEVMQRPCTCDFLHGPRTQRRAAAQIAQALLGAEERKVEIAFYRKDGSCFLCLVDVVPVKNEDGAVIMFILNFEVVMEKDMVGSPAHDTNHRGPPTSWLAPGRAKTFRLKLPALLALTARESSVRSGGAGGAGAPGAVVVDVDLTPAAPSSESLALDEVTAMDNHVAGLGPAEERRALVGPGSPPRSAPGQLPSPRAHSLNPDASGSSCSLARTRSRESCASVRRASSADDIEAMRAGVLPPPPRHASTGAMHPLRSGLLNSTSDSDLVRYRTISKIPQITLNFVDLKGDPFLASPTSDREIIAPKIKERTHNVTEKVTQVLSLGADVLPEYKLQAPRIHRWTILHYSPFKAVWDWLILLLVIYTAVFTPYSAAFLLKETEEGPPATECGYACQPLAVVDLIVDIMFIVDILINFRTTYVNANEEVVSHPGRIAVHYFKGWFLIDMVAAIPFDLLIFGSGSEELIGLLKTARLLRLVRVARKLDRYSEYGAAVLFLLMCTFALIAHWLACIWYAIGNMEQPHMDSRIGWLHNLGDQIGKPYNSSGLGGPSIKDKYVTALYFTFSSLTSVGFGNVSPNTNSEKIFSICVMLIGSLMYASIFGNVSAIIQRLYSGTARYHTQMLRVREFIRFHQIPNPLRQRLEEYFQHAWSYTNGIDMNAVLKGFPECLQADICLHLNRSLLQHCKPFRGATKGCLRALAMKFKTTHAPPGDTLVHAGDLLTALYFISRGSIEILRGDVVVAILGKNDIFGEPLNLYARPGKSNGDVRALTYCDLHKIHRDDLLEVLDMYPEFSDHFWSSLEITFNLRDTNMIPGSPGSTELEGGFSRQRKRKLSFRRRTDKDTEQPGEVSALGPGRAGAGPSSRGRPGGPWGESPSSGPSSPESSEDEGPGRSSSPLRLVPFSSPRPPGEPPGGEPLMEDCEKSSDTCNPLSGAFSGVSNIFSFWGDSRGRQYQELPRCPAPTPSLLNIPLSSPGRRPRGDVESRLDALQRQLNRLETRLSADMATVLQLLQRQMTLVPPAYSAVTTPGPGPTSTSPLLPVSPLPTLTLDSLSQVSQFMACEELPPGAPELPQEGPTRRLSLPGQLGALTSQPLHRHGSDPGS

SMILES | hERG current change (%, negative = inhibition) at 10uM
COc1ccc(CC(=O)N/N=C/c2cccn2-c2ccc([N+](=O)[O-])cc2)cc1OC | -37.9%
COc1cccc(-c2cc(C(=O)Nc3cc(C)nn3-c3ccccc3)no2)c1 | 6.19%
Cc1[nH]c(=S)[nH]c(=O)c1Cc1ccc(OCC(C)C)cc1 | 5.14%
Cc1cccc(NC(=O)c2cc(=O)c3ccccc3o2)c1 | 18.3%
CC(=O)C1=C(O)C(=O)N(Cc2cccnc2)C1c1ccc(O)cc1 (centres unmarked) | 14.5%
O=C(Nc1nc2ccccc2s1)c1cc(-c2ccco2)nc2ccccc12 | 4.78%
CC(=O)Nc1ccc(S(=O)(=O)N2CCCCC2c2cccnc2)cc1 (centres unmarked) | 2.45%
CC1(C)Cc2ccccc2C(N/N=C/c2cccc(F)c2)=N1.Cl | -19.6%
CCN(CC(=O)Nc1ccccc1C(F)(F)F)C(=O)/C=C/c1ccc(Cl)c([N+](=O)[O-])c1 | 10.1%
O=C(CN1C(=O)CCC1=O)NC(=O)NC1CCCC1 | 5.2%
CCOc1ccc(NC(=O)C2CC(=O)N(Cc3ccco3)C2)cc1 (centres unmarked) | 7.34%
Cc1ccc(C)c(OCCC(=O)OCC(=O)NC(=O)NCc2ccccc2)c1 | 4.16%
CC/C(=C\C(=O)c1ccncc1)Nc1ccc(Br)cc1 | -34.9%
Cc1ccc(C)c(NC(=S)Nc2cccc3cnccc23)c1 | 3.91%
COc1cc2nc(NC(=O)c3ccc(Cl)cc3)[nH]c(=O)c2cc1OC | 3.94%
Cc1ccc(N2CCN(C(=O)c3cc(COc4c(C)cccc4C)on3)CC2)c(C)c1 | 11.1%
CN1C(=O)N(C)C(=O)C2(Cc3cc(NC(=O)c4ccccc4Cl)ccc3N3CCCC32)C1=O (centres unmarked) | 10.4%
CC1(C)CC(NC(=O)c2ccc3c(c2)OCO3)CC(C)(C)N1 | 4.65%
CC(=O)OCc1nc2ccccc2s1 | 12%
CC(=O)C1=C(O)C(=O)N(CCc2c[nH]c3ccccc23)C1c1ccccc1 (centres unmarked) | 15.6%
COC(=O)c1cc(S(=O)(=O)Nc2cc(OC)cc(OC)c2)cn1C | 1.12%
CC(n1cnnn1)C12CC3CC(CC(C3)C1)C2 (centres unmarked) | -10.7%
CCCCCOc1ccc(N2C(=O)C3C4C=CC(C3C2=O)N(C)C4=O)cc1 (centres unmarked) | -31.2%

SMILES | hERG current change (%, negative = inhibition) at 10uM
O=C(O)Cc1sc(-c2ccccc2Cl)nc1-c1ccccc1 | -6.72%
Cc1cc2ccccc2c(=O)n1CC(=O)NCC(=O)N1CCN(c2ccccc2F)CC1 | 1.63%
O=C(N/N=C/c1c(O)n(Cc2ccccc2)c(=O)c2ccccc12)c1cccnc1 | 17.1%
CN(C)/C=C/C(=O)c1c(F)cccc1F | 8.69%
CC(C)c1nc(C#N)c(N2CCOCC2)o1 | 6.32%
CN(C(=O)COC(=O)C(C)(C)Oc1ccc(Cl)cc1)c1c(N)n(Cc2ccccc2)c(=O)[nH]c1=O | 7.38%
COc1cccc(CNCCc2c[nH]c3ccccc23)c1OCc1ccccc1.Cl | -47%
Nc1nc(SCC(=O)c2ccc([N+](=O)[O-])cc2)n[nH]1 | -1.82%
N#Cc1c(-c2cccc(Cl)c2)[nH]c(=S)[nH]c1=O | 33.5%
CCOC(=O)Cn1nnnc1CN(Cc1ccc(OC)cc1)Cc1cc2cc(CC)ccc2[nH]c1=O | -27%
Cc1ccc(C2(c3ccccc3)NC(=O)N(CC(=O)NC3CCS(=O)(=O)C3)C2=O)cc1C (centres unmarked) | -9.17%
CSCCC(NC(N)=O)C(=O)Nc1ccc(C)cc1 (centres unmarked) | 28.1%
Cc1ccccc1OCCOC(=O)c1c(-c2ccccc2)noc1C | 3.13%
COC(=O)Cn1c(C(=O)N2CCCC2)cc2c1C[C@H]1CN(C(=O)c3ccccc3)[C@@](Cc3ccc(F)cc3)(C(=O)OC)[C@@H]21 | -67.4%
O=C(CN1C(=O)COc2ccccc21)NCCCN1CCCCC1 | 12%
Cc1cc(C(=O)N(C)C2CCCCC2)no1 | 11.7%
CCN(C(=O)CSc1ncccc1C(=O)O)C1CCCCC1 | 31.9%
Cc1cc(-n2nc(C)cc2C)nc(NS(=O)(=O)c2ccccc2Cl)n1 | 1.72%
Cc1ccccc1[C@@]1(C)ON(c2ccccc2C(F)(F)F)C1=O | 0.704%
CCOC(=O)N1CCN(C(=O)c2c[nH]c3ccc(S(=O)(=O)N(C)c4ccc(OCC)cc4)cc3c2=O)CC1 | 3.77%
COc1nc(N=C(N)N)nc2c(C)cccc12 | -2.93%
CNC(=O)c1c(NC(=O)C2=COCCO2)sc(C)c1C | 14.7%
NC(=O)C1CCN(c2oc(-c3ccccc3)nc2S(=O)(=O)c2ccc(Br)cc2)CC1 | -55.9%

SMILES | hERG current change (%, negative = inhibition) at 10uM
CCNC(=O)C1CC(=O)N(Cc2ccc3c(c2)OCO3)C(=Nc2ccc(OCC)cc2)S1 (centres unmarked) | -0.331%
O=C(NC1=NCCS1)c1cccc(S(=O)(=O)N2CCOCC2)c1 | -0.218%
N#Cc1ccc(C23CC4(C2)[C@H](CN(Cc2ccc(-c5ccccc5)cc2)[C@@H]4c2ccccc2)C3c2ccccc2)cc1 (some centres unmarked) | 14.5%
CCCCn1c(N)c(N(CC(C)C)C(=O)c2oc3ccc(Br)cc3c2C)c(=O)[nH]c1=O | -17.7%
Cc1oc2c(CN3CCOCC3)c(O)ccc2c(=O)c1-c1ccc(Br)cc1 | -23.3%
CCCCn1c(=O)c(C(C)=O)c(O)c2ccccc21 | 3.22%
c1ccc(C(c2ccccc2)N2CCN(c3nc4ccccc4n4cnnc34)CC2)cc1 | -2.17%
CCC1Sc2ccccc2N(CC(=O)NC2CCCCC2)C1=O (centres unmarked) | -11%
C=C(C(=O)c1ccccc1)C(C)C(=C)C(=O)c1ccccc1 | 12.8%
O=C1CC(c2ccccc2Cl)=NN(c2ncnc3ccccc23)C1=O | 14.2%
O=C(O)/C=C/C(=O)Nc1ccc2c(c1)NC(=O)CO2 | 13.9%
O=C(COC(=O)Cc1ccccc1F)Nc1cc(S(=O)(=O)N2CCOCC2)ccc1N1CCCC1 | -26.9%
Nc1ccccc1OCCOCCOCCOc1ccccc1N | 6.68%
CCOC(=O)c1c(NC(=O)CN2CCCCC2)sc(C)c1C | 18.5%
CCC(C)NC(=O)c1ccc2nc(Cc3ccc(OC)cc3)oc2c1 (centres unmarked) | 14.5%
COc1cccc(-c2nn(-c3ccccc3)cc2/C=C(\C#N)C(=O)NCCCn2ccnc2)c1 | -38.8%
COc1cccc(C(=O)Nc2ccc(S(=O)(=O)Nc3onc(C)c3C)cc2)c1 | 22.3%
CCCCn1c(SCC(=O)OCC)nnc1-c1ccoc1C | 8.76%
O=C(NCCN1CCOCC1)c1cc2ccccc2[nH]1 | 5.13%
NCCc1ccc(O)cc1 | -5.78%
O=C1c2ccccc2C(=O)N1CC1CCCO1 (centres unmarked) | 8.48%
Oc1ccc2ccccc2c1C=Nc1cc(C(F)(F)F)ccc1N1CCCC1 | 4.96%
Nc1c(C(=O)O)cnn1-c1ccccc1 | 7.29%

SMILES | hERG current change (%, negative = inhibition) at 10uM
CC(=O)Nc1ccc(CN2CCC(n3nccc3NC(=O)CCc3ccccc3)CC2)cc1 | -5.87%
Cc1ccc2nc(N(CCCN(C)C)C(=O)COc3ccc(Cl)cc3)sc2c1.Cl | -8.71%
Cc1ccccc1C(=O)Nc1nnc(SCC(=O)NC2CC2)s1 | 9.97%
O=C(CNC(=O)c1ccc(Br)o1)NCC1CCCO1 (centres unmarked) | 9%
O=C(NC1CCN(C(=O)Nc2ccccc2Cl)CC1)c1ccco1 | -0.0116%
COC(=O)[C@H](CCSC)NC(=O)Nc1ccc(C)c(C)c1 | -83.6%
O=C(Nc1c(C(=O)O)[nH]c2ccccc12)c1cccc(C(F)(F)F)c1 | 20.8%
Cc1ccc2c(c1)C1CN(C)CCC1N2C(=O)/C=C/c1ccc2c(c1)OCO2 (centres unmarked) | -62.6%
O=C(c1ccc2c(c1)OCO2)N(CC1CCCO1)C1(C(=O)NC2CCCC2)CCCCC1 (centres unmarked) | 0.673%
CCOC(=O)Cc1cc(=O)n(-c2nc3ccccc3s2)[nH]1 | 5.12%
Cc1c(Cl)cccc1NC(=O)C1CC2CCC1C2 (centres unmarked) | 10.5%
O=C1CCN(S(=O)(=O)c2ccccc2)CCN1CCOCc1ccc(Cl)cc1 | -25.6%
C/C(CC(=O)NCCCN1CCOCC1)=N\NC(=O)COc1cccc2ccccc12 | -6.9%
CC(C)=C1SC(N2CCN(Cc3ccccc3)CC2)=NC1=O | -6.87%
Cc1ccc(NC(=O)c2ccc(S(=O)(=O)N3CCCCCC3)cc2)nc1 | 9.2%
CNC(=O)Nc1cc(C(F)(F)F)cc(C(F)(F)F)c1 | 14.3%
COc1cccc(CNC(=O)c2ccncc2)c1 | 20.8%
CC(C)(C)N(CC#CCC1(O)c2ccccc2-c2ccccc21)CCO | 24.2%
COc1ccc(CCNC(=O)CSc2nnnn2Cc2ccc3c(c2)OCO3)cc1OC | -4.15%
CC(=O)Nc1ccc(OCC(O)CN2CCCCC2C)cc1.Cl (centres unmarked) | 3.85%
